From US8568699B2, “Soft anticholinergic zwitterions” (priority 2005, dated 2013)

System: carbachol induced bradycardia (mainly muscarinic M2 receptors)
Assay: Carbachol induced bradycardia in anesthetized rats (tiotropium derivatives)
Type: in vivo, rat
Settings: compared with atropine and ipratropium bromide
Text: Intravenous administration of the cholinomimetic carbachol causes sinus bradycardia (increasing the PP cycle and RR cycle length of the ECG) in anesthetized rats. This effect, which is mediated mainly by muscarinic M2 receptors, can be prevented by prior administration of anticholinergic agent. […] Compound (aa) can be similarly evaluated.

With `CCOC(=O)C[N+]1(C)[C@@H]2C[C@@H](OC(=O)C(O)(c3cccs3)c3cccs3)C[C@H]1[C@@H]1O[C@@H]12` (stereo partly drawn) [Compound (w), 6β,7β-epoxy-3β-hydroxy-8-ethoxycarbonylmethyl-8-methyl-1αH,5αH-tropanium bromide, di-2-thienylglycolate] the Bradycardia protective effect was “less active than an equimolar dose of atropine, and was slightly less active than a 10-fold lower dose of ipratropium bromide”.
